Where “and” joins values, the source holds several entries; their conditions need not be identical. Identical values can stand only once. About 620 (0.23%) of roughly 270,000 compounds were called active. The shares of active, inactive and inconclusive entries below differ from those in the screen. The call rests on the fitted dose curve; in most records, active means well fitted inhibition curve with a large enough effect in the polarisation, with a control signal flat (not every such curve was filed as active); inconclusive means small, poorly fitted or top-dose-only effect, or effect the other way, or a change in a side signal; inactive means no such curve, though single readings can be large or run the other way; the % refers to the polarisation. A potency beside an inconclusive call is a rough fit, not a confirmed value. “Side channel” marks fits to a control or component signal instead of the main read-out.
Each compound was assayed against Menin (Homo sapiens) (UniProt O00255) (assay: qHTS Assay for Inhibitors Targeting the Menin-MLL Interaction in MLL Related Leukemias: Competition With Texas Red Labeled MLL-derived Mutant Peptide). Details: fluorescence polarization; FP activity change, negative = inhibition: at 61.6 µM (top of the series).
UniProt O00255, sequence (O00255 whole entry, looked up): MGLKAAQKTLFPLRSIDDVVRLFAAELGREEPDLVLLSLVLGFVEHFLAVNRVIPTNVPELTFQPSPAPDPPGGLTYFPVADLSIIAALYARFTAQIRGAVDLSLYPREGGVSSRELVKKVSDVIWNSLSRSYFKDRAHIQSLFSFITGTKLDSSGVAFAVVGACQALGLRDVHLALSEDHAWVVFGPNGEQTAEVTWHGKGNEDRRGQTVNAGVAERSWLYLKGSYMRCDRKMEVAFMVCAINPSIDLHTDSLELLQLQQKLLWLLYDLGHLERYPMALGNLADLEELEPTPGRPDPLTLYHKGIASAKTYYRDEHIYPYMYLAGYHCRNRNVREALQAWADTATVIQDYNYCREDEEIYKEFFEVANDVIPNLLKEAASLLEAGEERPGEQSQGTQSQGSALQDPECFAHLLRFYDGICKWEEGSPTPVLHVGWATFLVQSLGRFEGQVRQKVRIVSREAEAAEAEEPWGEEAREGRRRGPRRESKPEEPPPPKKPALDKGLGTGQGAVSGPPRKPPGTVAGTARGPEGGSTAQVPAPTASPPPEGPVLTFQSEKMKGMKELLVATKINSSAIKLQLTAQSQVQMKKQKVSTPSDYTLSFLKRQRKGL
Potency means the concentration at half of the fitted maximal effect; tags describe the fitted curve by direction and shape or compound fluorescence and quenching.
Wherever FP activity change, negative = inhibition is given: % of control where 0% means no effect.

Potency, inconclusive:
CC(=O)Nc1ccc(-c2csc(Nc3ncccn3)n2)cc1 6.31 µM [quencher, side channel, full curve], Cc1ccc(S/C=C\C(=O)c2ccccc2)cc1 35.5 µM [fluorescent, side channel, single point], O=C(NCCCN1CCCC1=O)NC12CC3CC(CC(C3)C1)C2 3.55 µM [inhibitor, partial curve], O=C1N/C(=C\c2ccc(O)cc2)C(=O)c2ccccc21 25.1 µM [fluorescent, side channel, single point], O=C(O)c1c(Cl)c(Cl)c(Cl)c(Cl)c1-c1c2cc(I)c(=O)c(I)c-2oc2c(I)c(O)c(I)cc12 891 nM [fluorescent, side channel, full curve] and 708 nM [fluorescent, side channel, full curve], Cc1ccnc(Nc2nc(-c3ccc(O)c(O)c3)cs2)c1 14.1 µM [quencher, side channel, partial curve], O=C(CC1NCCc2ccccc21)Nc1ccc(Oc2ccccc2)cc1 (centres undefined) 17.8 µM [fluorescent, side channel, partial curve], CCOc1ccc2nc(/N=C/c3c(C)[nH]n(-c4ccc(C)cc4)c3=O)sc2c1 25.1 µM [quencher, side channel, single point], COc1cccc(NC(=O)CN(c2cccc(OC)c2)S(C)(=O)=O)c1 7.08 µM [fluorescent, side channel, partial curve], CCOc1ccc(N(C(=O)/C=C/C(=O)Nc2cc(C)on2)C(C(=O)NC2CCCC2)c2ccccc2C)cc1 (centres undefined) 2.82 µM [inhibitor, full curve, poor fit], Cc1ccc(NC(=O)c2ccc3snnc3c2)cc1C 39.8 µM [fluorescent, single point], O=C(O)CCc1ccc(-c2ccccc2)n1-c1ccc(C(=O)O)cc1 11.2 µM [inhibitor, partial curve, poor fit], Cc1ccc(NC2=NC(c3ccc(C)cc3)n3c(nc(C)cc3=O)N2)cc1 (centres undefined) 31.6 µM [fluorescent, side channel, single point], COc1cc(CN2CCC(Cc3ccccc3)CC2)cc(OC)c1OC 39.8 µM [inhibitor, partial curve], COc1ccc(-c2ccc(CCC(=O)O)n2NC(=O)c2ccc(C(C)(C)C)cc2)cc1 15.8 µM [quencher, side channel, partial curve], N#Cc1ccccc1Cn1cc(/C=N/Nc2ccc([N+](=O)[O-])cn2)c2ccccc21 1.58 µM [quencher, side channel, partial curve], COc1ccccc1CNC(=O)[C@H](CCSC)NC(=O)[C@@H]1Cc2ccccc2CN1 20 µM [inhibitor, partial curve], COC(=O)c1c(NC(=O)c2ccco2)sc(C(=O)N2CCCC2)c1C 31.6 µM [inhibitor, single point], CCn1c(SCC(=O)N(C(C)C)C(C)C)nnc1-c1cc2ccccc2cc1O 8.91 µM [fluorescent, side channel, partial curve], CC(C)CSC1=NSC2=NC(=O)/C(=C\c3coc4ccccc4c3=O)C(=N)N12 25.1 µM [quencher, side channel, partial curve], Cn1cccc1C(=O)N1CCC2(CCCN(c3ccc(-c4ccccc4)cc3)C2)CC1 25.1 µM [fluorescent, side channel, partial curve], Cc1ccc(Nc2nc(-c3ccc(O)cc3O)cs2)nc1 11.2 µM [quencher, side channel, partial curve], Cc1ccccc1NS(=O)(=O)c1ccc(N2CCCC2=O)cc1 39.8 µM [inhibitor, single point], Cc1[nH]n(C(N)=S)c(=O)c1N=Nc1ccc(Cl)cc1Cl 8.91 µM [quencher, side channel, full curve], O=C(O)CCN1C(=O)/C(=C2\C(=O)N(Cc3ccccc3Cl)c3ccccc32)SC1=S 14.1 µM [quencher, side channel, partial curve], Cc1ccc(CNC(=O)c2ccc(NC3=NC4CS(=O)(=O)CC4S3)cc2)cc1 (centres undefined) 39.8 µM [fluorescent, side channel, single point], CC(=O)Nc1cc(C(=O)N(C)Cc2ccccc2)ccc1S(=O)(=O)c1ccc(C)cc1 17.8 µM [inhibitor, partial curve], CCn1c(C)nc2cc(C(=O)N/N=C/c3ccc(O)c(O)c3O)ccc21 25.1 µM [quencher, side channel, partial curve], CCCCSCCCNC(=O)C1CCC(CNS(=O)(=O)c2ccc(NC(C)=O)cc2)CC1 (centres undefined) 28.2 µM [fluorescent, side channel, partial curve], CC(=N\O)/C(CN(C)C)=N/O 28.2 µM [quencher, side channel, single point], O=C(OCCN=C1NS(=O)(=O)c2ccccc21)c1cccs1 35.5 µM [fluorescent, side channel, single point], Cc1ccc(OCCCC(=O)NC2CCCCC2)cc1 39.8 µM [fluorescent, side channel, single point], Cc1cc(C)cc(NC(=O)CCN2C(=O)c3ccccc3C2=O)c1 35.5 µM [fluorescent, side channel, single point], CC(C)CN1CCC(Oc2cccc(C(=O)NCCc3ccccc3)c2)CC1 31.6 µM [inhibitor, single point], CCc1cc(C(=O)O)c(NC(=O)c2cc(OC)c(OC)c(OC)c2)s1 15.8 µM [quencher, side channel, partial curve], COc1ccc(/C=N/Nc2ccc([N+](=O)[O-])cc2)cc1Cn1cc([N+](=O)[O-])cn1 10 µM [quencher, side channel, partial curve], COC(=O)CNC(=O)CN1C(=O)N(c2cccc(Cl)c2)C(N(O)C(=O)Nc2cccc(Cl)c2)C1(C)C (centres undefined) 22.4 µM [quencher, side channel, partial curve], O=C(NCc1ccco1)Nc1cccs1 35.5 µM [quencher, side channel, single point], S=c1nc(NCc2ccc3c(c2)OCO3)c2ccccc2[nH]1 39.8 µM [fluorescent, single point], COc1ccc(C(=O)Nc2ccc(OC)c([N+](=O)[O-])c2)cc1Br 15.8 µM [quencher, side channel, partial curve], COc1ccc(NC(=O)c2cc3c([nH]c4ccccc43)c(C)n2)cc1 11.2 µM [quencher, side channel, partial curve], COc1cc2c(cc1OC)CN(C(=O)C(CCSC)NS(=O)(=O)c1ccc(C)cc1)CC2 (centres undefined) 39.8 µM [fluorescent, side channel, single point], O=C(NCc1ccc(Cl)cc1)C1CCC(CNS(=O)(=O)c2ccccc2)CC1 (centres undefined) 25.1 µM [fluorescent, side channel, partial curve], CCc1nnc(NC(=O)CSc2ccc(-c3ccc(F)cc3)nn2)s1 35.5 µM [fluorescent, side channel, single point], CCNC(=O)/C(=C/c1ccco1)NC(=O)/C=C/c1ccccc1 39.8 µM [inhibitor, single point], O=C(COc1ccccc1)Nc1cccc(-c2nc3ccccc3[nH]2)c1 28.2 µM [quencher, side channel, partial curve], O=C(c1ccco1)N1CCN(Cc2cccc3ccccc23)CC1 31.6 µM [inhibitor, partial curve], Cc1cc2nnc(SCC(=O)OC(C)C)n2c2ccccc12 39.8 µM [inhibitor, single point], COc1ccc(-c2nc(CS(=O)(=O)CC(=O)NCc3ccc(F)cc3)c(C)o2)cc1 39.8 µM [fluorescent, side channel, single point], COC(=O)[C@@H]1CC[C@H](C)[C@@H](c2ccc(C)cc2)N1C(=O)c1ccc(/C=N/O[C@@H](C)CN2CCCCc3nc(C)c(C)cc32)cc1 0.794 µM [fluorescent, side channel, full curve]

Potency, inactive:
CO/N=C(\Cn1ncc(N2CCCC2)c(Cl)c1=O)c1ccc(Cl)cc1, COc1ccc2ccccc2c1/C=N/n1cnnc1, COc1ccccc1C(=O)N1CCN(Cc2cccnc2)CC1

FP activity change, negative = inhibition, inactive:
COC(=O)C(C(=O)OC)[C@@H]1c2ccccc2[C@H]2C(=C[C@@H](C)[C@H]3C(=O)N(c4ccccc4)C(=O)[C@H]32)N1C(=O)OC -1.74% [at 11.7 µM]

From PubChem BioAssay AID1768 (National Center for Advancing Translational Sciences (NCATS), 2009)
